Experimental findings from PMC12216098 are described below.

The target in the test is Human SPT6 (wildtype) as used for ITC (human) (UniProt Q7KZ85). Kind of test: ITC; U1A in the syringe (150-550 μM), SPT6 construct in the cell (10-35 μM); 25 °C; SEC300 Buffer (20 mM HEPES-NaOH pH 7.5, 300 mM NaCl); one set of binding sites model. (In general: Isothermal titration calorimetry measures the heat released or taken up as one component is titrated into another.)

The substance “Human U1A (a stretch of the chain, no sequence given) (natural protein; other documents disagree on this pair)” returned a Kd of 1960 nM.

The Kd is a measure of binding affinity in units of concentration. A high value points to lower affinity.
